PubChem BioAssay AID662 (National Center for Advancing Translational Sciences (NCATS), 2007)
The campaign covered roughly 71,000 compounds. About 1,800 (2.5%) were called active. This list was built around the results that the source calls inconclusive (neither active nor inactive); the mix of calls is not that of the screen. Calls follow the shape of the dose curve; as a rule, active = well fitted activation curve with a large enough effect in the signal ratio, with a control signal flat (not every such curve was filed as active); inconclusive = small, poorly fitted or top-dose-only effect, or effect the other way, or a change in a side signal; inactive = flat fitted curve, though single readings scatter; the % refers to the signal ratio. Where the call is inconclusive, the potency comes from a doubtful curve fit.

assay: Cell signaling CRE-BLA (Fsk stim); details: CHO CRE-bla reporter (cAMP response element driving beta-lactamase), forskolin EC10, beta-lactamase ratio; activity change, negative = inhibition: at 38.2 µM (top of the series) unless noted; as to activity change, negative = inhibition: % of control where 0% means no effect
From the text: NIH Molecular Libraries Screening Centers Network [MLSCN]
NIH Chemical Genomics Center [NCGC]
Assay Provider: Marshall W. Nirenberg, U.S. National heart lung & blood institute
Memories persist for different lengths of time, from seconds or minutes to a lifetime. There are two kinds of memory: short-term memory (STM) and long-term memory (LTM). STM lasts for minutes to hours, which maybe mediated by modifications of molecules involved in synaptic functions. LTM lasts for days or longer, and may be due to the formation of new synapses or restructuring of existing synapses. LTM, but not STM, requires gene transcription and synthesis of proteins. CREB (cyclic-AMP Responsive Element Binding Protein) is one of the candidates plays an important role for enhancement of some types of LTM. CREB, a family of transcription factors, regulates the transcription of genes containing cAMP Responsive Elements (CRE). CRE is a nucleotide sequence often found in the promoter regions of genes that are binding sites for CREB.
Using a beta-lactamase reporter-gene under control of cAMP responsive element, a cell-based assay [CellSensor(TM) CRE-bla CHO developed by Invitrogen Corp.] was used to measure forskolin-induced signaling. Library compounds were measured for their ability to modulate positively or negatively the action of EC10 NKH 477, a water soluble forskolin, on reporter gene activity. Compounds were screened in a titration series in 1536-well format. Positive and negative modulators were identified based on the AC50 values derived from the screening data.
NCGC Assay Protocol Summary
2000 cells/5uL in Opti-MEM medium containing 0.5% dialyzed FBS, 0.1 mM NEAA, 1 mM sodium pyruvate and 10 mM HEPES was dispensed into 1536-well plates and cells were cultured at 37 degrees Celsius overnight. […] And then the plates were incubated at 37 degrees Celsius for 3 hours. 1 uL of CCF4-dye mixture was added to each well. After incubated at room temperature for 2 hours the plates were measured on an EnVision plate reader at Excitation 405nm, Emission1=460nm and Emission 2=530nm. The %Activity was determined from the ratio of 460nm/530nm.
Keywords: NIH Roadmap, MLSCN, MLSMR, qHTS, NCGC, CRE, beta-lactamase reporter-gene assay.
Potency is read from the fitted curve at half-maximal effect; tags tell the direction and shape of the fitted curve.

Row | Structure (SMILES) | activity change, negative = inhibition | Potency
1 | COCCn1c(SCC(=O)N2CCCc3ccccc32)nc2cccnc21 | inconclusive: 18.8% | 
2 | O=S1(=O)C=C(Oc2ccc(F)cc2)c2ccccc21 | inconclusive: -7% | 
3 | O=C(NCc1ccccc1)[C@H]1C[C@@H]1[C@H](NP(=O)(c1ccccc1)c1ccccc1)c1ccccc1 |  | inactive
4 | COc1ccc(CCNC(=O)CN(c2ccccc2OC)S(C)(=O)=O)cc1 | inconclusive: -15% | 
5 | C[C@@](N)(Cc1c[nH]c2ccccc12)C(=O)O | inactive: -3.94% [at 7.6 µM] | 
6 | Cc1cccc(N2CCN(C(=O)c3cc4c(C)nc5ccccc5c4o3)CC2)c1C |  | inconclusive: 5.01 µM [rising, single point]
7 | Cc1ccc2c(c1)-c1cc(C)nn1C(c1sccc1C)N2 (stereo not given) |  | inconclusive: 3.16 µM [rising, full curve]
8 | COc1cccc(NC(=O)c2ccccc2-c2nc(-c3cccc(C)c3)no2)c1 |  | inconclusive: 25.1 µM [rising, single point]
9 | Cc1ccc(NC(=O)Cn2nnc(C(=O)NCc3ccccc3)c2N)cc1C | inconclusive: -23.3% | 
10 | CCOC(=O)CNC(=O)Nc1nnc(-c2ccc(OCC)cc2)o1 |  | inactive
11 | CCCCOC(=O)n1c(SCC(=O)N(CC)CC)nc2ccccc21 |  | inconclusive: 10 µM [rising, partial curve]
12 | COc1ccc(Cn2c(=O)[nH]c3cc(C(=O)NCc4ccc5c(c4)OCO5)ccc3c2=O)cc1 | inconclusive: 10.1% [cytotoxic] | 
13 | CCCC(=O)N1c2ccc(-c3csc(N)n3)cc2CC1C (stereo not given) | inconclusive: 19% | 
14 | COc1ccc(Cc2nnc(-c3cccc(C)c3)o2)cc1OC |  | inconclusive: 6.31 µM [rising, partial curve]
15 | Cc1c(/N=C/c2ccco2)n(Cc2ccccc2)c2ccccc12 | inconclusive: -21.1% [at 7.6 µM] | 
16 | O=C(O)CC1(C(=O)O)CCCCC1 | inactive: -1.05% [at 7.6 µM] | 
17 | CCOC(=O)c1sc(NC(=O)CSc2nnc(C)s2)c(C(=O)OCC)c1C | inconclusive: 12.1% | 
18 | Cc1ccc(CNC(=O)CCS(=O)(=O)c2cc(Br)cc3c2N(C(=O)C2CC2)CC3)o1 | inconclusive: -25.8% | 
19 | O=C(CN1C(=O)c2ccccc2S1(=O)=O)NCc1cccnc1 | inconclusive: -13.5% | 
20 | CCc1nnc2sc(-c3ccc(NC(=O)CSc4ccc(Cl)cc4)cc3)nn12 | inconclusive: 12.2% | 
21 | O=C(c1ccc(N2CN(C(=O)c3ccco3)c3nc4ccccc4nc32)cc1)N1CCOCC1 |  | inconclusive: 10 µM [rising, partial curve]
22 | COc1ccc(OC)c(-c2csc(N(Cc3ccco3)C(=O)c3cccs3)n2)c1 |  | inactive
23 | COc1cccc(-n2c(C)nnc2SCC(=O)Nc2ccccc2N2CCOCC2)c1 |  | inconclusive: 10 µM [rising, single point]
24 | O=C(Nc1cc(=O)c2ccccc2o1)N1CCCCC1 |  | inconclusive: 12.6 µM [rising, partial curve]
25 | O=C(O)CCc1ccc(-c2cccs2)n1NC(=O)c1ccc(Cl)cc1 | inconclusive: 13% [at 7.6 µM] | 
26 | Cc1sc2nc3ccc(N4CCCCC4)nn3c(=O)c2c1C | inconclusive: 22.1% | 
27 | OCCN1CCN(c2ncnc3nc[nH]c23)CC1 |  | inconclusive: 12.6 µM [rising, partial curve]

Row | Structure (SMILES) | activity change, negative = inhibition | Potency
28 | Cc1ccc(-c2nc(C3CCCN(S(=O)(=O)c4ccc(C)cc4)C3)no2)cc1 (stereo not given) | inconclusive: 24.5% [cytotoxic] | 
29 | CCC(C)NC(=O)c1cnn2c(C)c3c(nc12)CCCC3 (stereo not given) |  | active: 12.6 µM
30 | COc1ccc(CC(=O)NC(CC(=O)O)c2ccc(OC)cc2)cc1 (stereo not given) | inconclusive: 9.6% | 
31 | COc1cc2c(cc1NC(=O)C1CCCO1)oc1ccccc12 (stereo not given) | inconclusive: 19.3% | 
32 | CCCc1cc(C(N)=O)c(NC(=O)c2cc(C)on2)s1 |  | inactive
33 | CCN(CC)c1nc(N)c2c(N)n(-c3ccccc3C)c(=S)c(C#N)c2c1C#N | inconclusive: -27.7% | 
34 | Cn1c2ccccc2c2c(C(=O)NCCCN3CCCC3=O)cn(C3CCCCC3)c(=O)c21 |  | inconclusive: 12.6 µM [rising, single point]
35 | O=c1c(-c2ccc(Cl)cc2)nc2cnc(N3CCOCC3)nc2n1CCc1ccccc1 |  | inconclusive: 6.31 µM [rising, partial curve]
36 | O=C(Nc1c(-c2ccccc2)nc2c(Br)cc(Br)cn12)c1ccco1 | inconclusive: 8.67% | 
37 | Cn1c(=O)n(C/C=C/c2ccccc2)c(=O)c2c1nc1n2CCCN1Cc1ccccc1 |  | inconclusive: 2.51 µM [falling, full curve]
38 | Cc1csc(NC(=O)CSc2nc(C)cs2)n1 | inconclusive: 1.58% | 
39 | O=S(=O)(NCC(c1cccnc1)N1CCN(c2ccccc2)CC1)c1cccs1 (stereo not given) | inconclusive: 1.41% | 
40 | COc1ccc(-c2cc(O)cc(O)c2)cc1 |  | inactive
41 | O=C(Cn1[nH]c(=O)c2ccccc2c1=O)Nc1ccc2c(c1)CCC2 |  | inconclusive: 10 µM [rising, single point]
42 | COc1cc(OC)c(Nc2cc(C)nc3nc(C)nn23)cc1Cl |  | active: 7.94 µM
43 | COc1ccc(CNC(=O)c2cccc3c2C(=O)N(Cc2cccnc2)C3)cc1 |  | inconclusive: 15.8 µM [rising, single point]
44 | Cc1cc(NC(=O)c2ccccc2Oc2ccccc2)no1 | inconclusive: 16.2% | 
45 | CCCC(c1nnnn1Cc1ccc(F)cc1)N1CCN(C2CCCCC2)CC1 (stereo not given) |  | inactive
46 | COc1ccc(N2CCN(C(=O)Cc3ccc(-n4c(=O)[nH]c5ccccc5c4=O)cc3)CC2)cc1 | inconclusive: -17.9% | 
47 | CCN(CC)c1ccc(NC(=O)c2cccc(C)c2OC)c(C)c1 |  | inconclusive: 0.0631 µM [rising, full curve]
48 | COC(=O)CCCCCNc1ccc(C(=O)OC)cc1N |  | inactive
49 | O=C1c2ccccc2C(Nc2cccc(C(F)(F)F)c2)N1Cc1ccco1 (stereo not given) |  | inconclusive: 0.631 µM [rising, full curve]
50 | c1ccc2c(c1)-c1cccc3c1c-2cc1ccccc13 |  | inconclusive: 25.1 µM [rising, partial curve]
51 | Cc1ccc(C)c(CSc2nnc(-c3cccnc3)n2N)c1 | inconclusive: -13.2% | 
52 | CCCn1c(SCC(=O)N2CCCc3ccccc32)nnc1-c1ccco1 | inconclusive: 20.5% | 
53 | Cc1nn(CCCC(=O)N2CCc3ccccc3C2)c(=O)c2cc3sccc3n12 |  | inconclusive: 12.6 µM [rising, single point]
54 | O=C(O)CNC1=NCCCCC1 |  | inconclusive: 3.98 µM [falling, single point]

Row | Structure (SMILES) | activity change, negative = inhibition | Potency
55 | COc1ccc2[nH]c(=O)c(CN(Cc3cccs3)Cc3nnnn3C(C)(C)C)cc2c1 |  | inconclusive: 12.6 µM [rising, single point]
56 | NCCSCc1ccccc1Cl | inactive: 2.16% [at 7.6 µM] | 
57 | O=C(NCc1cccs1)C(Cc1ccccc1)n1cccc1 (stereo not given) |  | inactive
58 | CCOC(=O)C1=CN(C)C=C(C(=O)OCC)C1c1ccsc1 |  | inconclusive: 10 µM [rising, partial curve]
59 | CSc1nc2c(c(=O)n1Cc1ccccc1)SC(C)C2 (stereo not given) |  | inconclusive: 10 µM [rising, partial curve]
60 | Cc1nnc(NC2=NCCCCC2)o1 |  | inconclusive: 3.98 µM [rising, partial curve]
61 | Clc1cccc(C=NC=Nc2cccc(Cl)c2)c1 | inconclusive: -4.92% | 
62 | COc1cc(S(=O)(=O)N2CCN(Cc3ccc4c(c3)OCO4)CC2)c(C)cc1C | inconclusive: -6.38% | 
63 | Cc1ccc(SCC(=O)N2CCCC2)cc1 | inconclusive: 2.13% [at 7.6 µM] | 
64 | Cc1ccc(S(=O)(=O)C(C#N)c2nc3ccccc3nc2N2CCCC2)cc1 (stereo not given) |  | inconclusive: 2.51 µM [rising, partial curve, poor fit]
65 | COc1ncc2nc(CCc3ccccc3)c(=O)n(-c3ccccc3)c2n1 | inconclusive: 17.1% | 
66 | CCOC(=O)C1=C(CSc2nncn2C)NC(=O)NC1c1cc(OCC)ccc1OCC (stereo not given) |  | inactive
67 | CCN(CC)CCCN1C(=O)C(O)=C(C(=O)c2ccco2)C1c1cc(OC)ccc1OC (stereo not given) | inconclusive: 6.98% | 
68 | Cc1nn(-c2ccc(F)cc2)c2sc(C(=O)OC3CCOC3=O)cc12 (stereo not given) |  | inconclusive: 7.94 µM [rising, single point]
69 | CCCN(Cc1cc2cc(OC)ccc2[nH]c1=O)C(=O)c1ccncc1 |  | inactive
70 | COC(=O)CSC1=C(C#N)C(c2ccccc2OC)C(C(=O)OC)C(=O)N1 (stereo not given) | inconclusive: 27.1% [at 7.6 µM] | 
71 | CCOC(=O)c1sc(NC(=O)CSc2nnc(C(C)C)n2CC)nc1C |  | inconclusive: 20 µM [rising, single point]
72 | Cc1coc2c(C)c3oc(=O)c4c(c3cc12)CCCC4 | inconclusive: 25.2% | 
73 | Nc1ncn([C@@H]2O[C@@H](CO)[C@@H](O)[C@H]2O)c(=O)n1 |  | inactive
74 | COc1ccc(N2CCN(c3oc(COc4ccccc4)nc3C#N)CC2)cc1 | inconclusive: 13.5% | 
75 | CCOc1ccccc1Nc1ncnc2c1cnn2-c1ccccc1 |  | inconclusive: 10 µM [rising, single point]
76 | CCC(C)[C@H](NC(=O)Nc1ccc(C(C)=O)cc1)C(=O)OC (stereo not given in full) |  | inactive
77 | COc1ccc(CC(=O)N2CCNC2=O)cc1 |  | inconclusive: 1 µM [falling, single point]
78 | CCc1cccc2nc3c(c([Si](C)(C)C)c12)Cn1c-3cccc1=O |  | active: 12.6 µM
79 | COCCCn1c(-c2ccsc2)nc2c1c(=O)[nH]c(=O)n2Cc1ccccc1 | inconclusive: 27.6% | 
80 | CCCOc1ccc(N2C(=O)CC(N(O)c3ccccc3)C2=O)cc1 (stereo not given) |  | inactive
